# From PubChem BioAssay AID1768 (National Center for Advancing Translational Sciences (NCATS), 2009)
# Hit rate of the full screen: of about 270,000 compounds, about 620 (0.23%) were called active. The inconclusive results got no clear call from the source; some entries with a clear call stand among them for comparison. Calls come from the whole dose curve; as a rule, active = well fitted inhibition curve with a large enough effect in the polarisation, with a control signal flat (not every such curve was filed as active); inconclusive = small, poorly fitted or top-dose-only effect, or effect the other way, or a change in a side signal; inactive = no such curve, though single readings can be large or run the other way; the % refers to the polarisation. A potency beside an inconclusive call is a rough fit, not a confirmed value. A note “side channel” means that the fit belongs to a control or component signal, not to the main read-out.
# Molecular target: Menin (Homo sapiens) (UniProt O00255)
# Experiment: qHTS Assay for Inhibitors Targeting the Menin-MLL Interaction in MLL Related Leukemias: Competition With Texas Red Labeled MLL-derived Mutant Peptide
# Conditions: fluorescence polarization; series mostly up to 61.6 µM
# Potency is the fitted concentration of half-maximal effect; tags give direction and shape of the fitted curve or compound fluorescence and quenching.
# Chain of UniProt O00255 (O00255 whole entry, looked up): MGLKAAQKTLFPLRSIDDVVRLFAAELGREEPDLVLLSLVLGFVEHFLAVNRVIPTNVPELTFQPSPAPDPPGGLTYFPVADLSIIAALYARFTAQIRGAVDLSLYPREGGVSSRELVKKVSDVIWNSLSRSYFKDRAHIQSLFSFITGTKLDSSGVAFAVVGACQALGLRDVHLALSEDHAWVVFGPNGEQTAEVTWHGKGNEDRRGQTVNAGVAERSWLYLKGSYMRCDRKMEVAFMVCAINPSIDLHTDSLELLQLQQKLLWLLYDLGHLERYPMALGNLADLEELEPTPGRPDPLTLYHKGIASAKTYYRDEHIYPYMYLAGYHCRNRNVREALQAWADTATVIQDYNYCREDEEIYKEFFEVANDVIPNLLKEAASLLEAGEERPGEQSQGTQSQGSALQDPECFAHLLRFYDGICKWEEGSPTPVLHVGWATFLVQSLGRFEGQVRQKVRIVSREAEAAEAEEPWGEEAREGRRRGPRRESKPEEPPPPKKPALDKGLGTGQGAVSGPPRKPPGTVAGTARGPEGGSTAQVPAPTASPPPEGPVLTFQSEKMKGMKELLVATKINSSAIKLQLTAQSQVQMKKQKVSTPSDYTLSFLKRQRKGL
row,SMILES,Potency
1,c1coc(-c2nc3ccccc3nc2-c2ccco2)c1,"inconclusive: 12.6 µM [quencher, side channel, partial curve]"
2,N/C(Cc1ccc([N+](=O)[O-])cc1)=N\OC(=O)c1ccc([N+](=O)[O-])cc1,"inconclusive: 28.2 µM [quencher, side channel, partial curve]"
3,CCc1ccccc1N(CC(=O)NCc1ccc(OC)cc1)C(=O)CCC(=O)Nc1ccccn1,"inconclusive: 39.8 µM [fluorescent, side channel, single point]"
4,CC(=O)c1ccc(NC(=O)Cc2cccs2)cc1,"inconclusive: 25.1 µM [quencher, side channel, partial curve]"
5,Cc1ccc2nc(N(CCCN(C)C)C(=O)c3ccc(S(=O)(=O)N4CCc5ccccc5C4)cc3)sc2c1,"inconclusive: 0.794 µM [fluorescent, side channel, full curve, poor fit]"
6,O=C(N/N=C/c1ccc([N+](=O)[O-])cc1)c1cccc2cc[nH]c12,"inconclusive: 22.4 µM [quencher, side channel, partial curve]"
7,CC1CN(c2ncc(/C=N/NC(=O)c3ccccc3O)s2)CC(C)O1 (stereo unspecified),"inconclusive: 25.1 µM [quencher, side channel, single point]"
8,CNC(=O)[C@]1(C(F)(F)F)C[C@H](CCC2CCCCC2)CCCO1,inactive
9,Cc1ccc(NC(=O)Cn2c(O)c(N=NC(N)=S)c3ccccc32)cc1,"inconclusive: 39.8 µM [fluorescent, single point]"
10,CCOC(=O)c1cnc2c(OC)cccc2c1Oc1ccccc1,"inconclusive: 10 µM [fluorescent, side channel, partial curve]"
11,C1=C(c2ccc(-c3ccccc3)cc2)Nc2ncnn2C1c1ccco1 (stereo unspecified),"inconclusive: 39.8 µM [quencher, side channel, single point]"
12,Cc1nc2scc(C)n2c(=O)c1S(=O)(=O)N1CCN(c2ccccc2)CC1,inactive
13,CCOc1ccc2c(c1)c(N=NC(=N)N)c(O)n2C,inactive
14,CCc1nnc(SCC(=O)Nc2ccccc2Cl)nc1CC,"inconclusive: 10 µM [fluorescent, side channel, partial curve]"
15,O=[N+]([O-])c1cccc(N/N=C/c2cccc3ccccc23)c1,"inconclusive: 14.1 µM [quencher, side channel, partial curve]"
16,COC(=O)c1ccc(NC(=O)c2cc3c(CO)cnc(C)c3oc2=Nc2cccc(C(N)=O)c2)cc1,"inconclusive: 20 µM [inhibitor, partial curve]"
